The text below walks through data of the RNAGym collection of RNA variant scans (doi:10.1101/gad.245936.114).

To fix the notation:
B1: tRNA (parent)
chain: CUCUCGGUAGCCAAGUUGGUUUAAGGCGCAAGACUUUAAUUUAUCACUACGAAAUCUUGAGAUCGGGCGUUCGACUCGCCCCCGGGAGAUUUUUUCCUCGAGCAA

Variants at the background level are over-represented here.

Variants of B1 are the subject of the series. As to the kind of experiment: nonsense suppression (GFP-seq) (ratio to wild type); higher = more function; SUP4oc tRNA, yeast GFP reporter sort-seq. In a few lines:
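Yeast were grown in raffinose/galactose medium with 80 mg/L adenine, each strain bearing a genome-integrated ochre-suppressor tRNA variant from a ~3% random-mutation library, a galactose-driven GFP ochre reporter, and RFP. After sorting into GFP/RFP bins, every bin was sequenced on an Illumina platform at phred ≥30. The GFPSEQ value, a measure of nonsense suppression, is the weighted bin median GFP/RFP relative to the unmutated parent tRNA, using each variant's estimated cell share per bin as the weight. Only variants with ≥100 reads and ≥30 cells were included.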
Consider CUCUCGGUAGCCAAGUUGGUUUAAGGCGCAAGACUUUAAUUUAUCACUACGAAAUCUUGAGAUCGGGCGAACGCCUCGCCCCCGGGAGAUUUUUUCCUCGAGCAA [U70A U71A A74C], for which the nonsense suppression was at most 0.026. Regarding CUCUCGGUAGCCAAGCUGGUUUAAGGCGCAAGACUUUAAUUUAUCACUACGAAAUCUUGAAAUCGCGCGUUCGACUCGCCCCCGGGAGAUUUUUUCCUCGAGCAA [U16C G61A G66C], the nonsense suppression was at most 0.026. With CCCUCGGUAGCCAAGAUGCUUUAAGGCGCAAGACUUUAAUUUAUCACUACGAAAUCUUGAGUUCGGGCGUUCGACUCGUCCCCGGGAGAUUUUUUCCUCGAGCAA [U2C U16A G19C A62U C79U], the nonsense suppression is at most 0.026. As for CUCUCGGUAGCCAAGUUAGUUUAAGGGGCAAGACUUUAAUUUAUCACUACGAAAUCUUGAGAUCGGGCGUUCGACUCGCCCCCGGGAGAUUUUUUCCUCGAGCAA [G18A C27G], the figure is at most 0.026; as for CUCUCGGUAGCCAAGUCGGUUUAAGGCGCAAGACUUUAAUUUAUCACUACGAAAUCUUGAAAUCGGGCGCUCGACUCGCCCCCGGGAGAUUUUUUCCUCGAGCAA [U17C G61A U70C], at most 0.026; as for CUCUCGGUAGACAAGUUGGUUUAAGGCGCAAGACUUUAAUUUAUCACUACGAAAUCUUGAGAUCGGGCGAUUGACUCGCCCCCGGGAGAUUUUUUCCUCGAGCAA [C11A U70A C72U], at most 0.026. As for CUCUCGGUAGCCAAGUUGGUUGUAGGCCCAAGACUUUAAUUUAUCACUACGAAAUCUUGAGAUCGGGCGUUCGACUCGGCCCCGGGAGAUUUUUUCCUCGAGCAA [U22G A23U G28C C79G], the nonsense suppression was at most 0.026.

For CUCUCGGUAGCCAAGGUGGUUUAAGGCGCAAGACUUUAAUUUAUCACUACGAAAUCUUGAGAUCGGGAGUUCGACUCGCCCCCGGGAGAUUUUUUCCUCGAGCAA [U16G C68A], the nonsense suppression is at most 0.026. As to CUCUCGGUAGCCAAGUUGGUUUAAGGCGCAAGACUUUAAUUUAUCACUACGAAGUCUUGAGAUCGGGCGUUCGACUCGCGCCCGGGAGAUUUUUUCCUCGAGCAA [A54G C80G], the nonsense suppression is at most 0.026. Take CUCUCGGUAGCCAUGUUGGUUUAAGGCGCAAGACUUUAAUUUAUCACUACGAAAUCUUGAGAUCGAGCGUUCGACUCGCCCCCGGGAGAUUUUUUCCUCGAGCAA [A14U G66A]: the nonsense suppression was at most 0.026. Take CUUUCGGUAGCCAAGUUGGUUUAAGGCGCAAGACCUUAAUUUAUCACUACGAAAUCUUGAGAUCGGGCGUUCAACUCGCCCCCGGGAGAUUUUUUCCUCGAGCAA [C3U U35C G73A]: the nonsense suppression is at most 0.026.

As to CUCUCGGUAGCCAGGUUGGUUUAAGGCGCAAGACUUUAAUUUAUCACUACGAAAUCUUGAGAUCGGGCGUUCGACUCGCCCCCGGGAGCUUUUUUCCUCGAGCAA [A14G A89C], the nonsense suppression was at most 0.026. Regarding CUCUCGGUAGCCAAGUUGGUUUAAGGCGCAAGACUUUAAUUUAUCACUACGAAAUCUUGAGAUCGGGAGUUGGACUCGCCCCCGGGAGAUUUUUUCCUCGAGCAA [C68A C72G], the nonsense suppression is at most 0.026. CUCUCGGUAGCCAAGUUGGUUUAAGGCGCAAGACUUUAAUUUAUCACUACGAAAUCUUGAGAUCGGGCUUUCGACUCGACCCCGGGAGAUUUUUUCCUCGAGCAA [G69U C79A]: the nonsense suppression is at most 0.026. Turning to CUCUCGGUAGCCAAGUUGGUUUAAAGCGCAAGACUUUAAUUUAUCACUACGAAAUCUUGAGAUCGAGCGUUCGACUCGCCCCCGGGAGAUUUUUUCCUCGAGCAA [G25A G66A], the nonsense suppression was at most 0.026. As for CUCUCGGUAGCCAAGUUGGUUUAAGGCGCAAGACUUUAAUUUAUCACUACGAAAUUUUGAGAUCGGGCGUUCGACUCGCCCCCUGGAGAUUUUUUCCUCGAGCAA [C56U G84U], the nonsense suppression was at most 0.026. As to CUCUCGGUAGCCAAGUUGGUUUAGGGCGCAAGACUUUAAUUUAUCACUACGAAAUCUUGACAUCGGGCGUUCGACGCGCCCCCGGGAGAUUUUUUCCUCGAGCAA [A24G G61C U76G], the nonsense suppression was at most 0.026.

Consider CUCUCGGUAGCCAAGUAGGUUUAAGGCGCAAGACUUUAAUUUAUCACUACGAAAUCUUGAGAUCGGGCGUUCGAUUCGCCCCCGGGAGCUUUUUUCCUCGAGCAA [U17A C75U A89C], for which the nonsense suppression is at most 0.026. In the case of CACUCGGUAGCCAAGAUGGUUUAGGGCGCAAGACUUUAAUUUAUCACUACGAAAUAUUGAAAUCGCGCGUUCGACUCGCCCCCGGGGGAUUUUUUCCUCGAGCAA [U2A U16A A24G C56A G61A G66C A87G], the nonsense suppression was at most 0.026. For CUCUCGGUAGCCAAGUUGGUUUAAGGCGCAGGACUUUAAUUUAUCACUACGAAAUAUUGAGAUCGGGCGUUCGACUCGCCCCCGGGAAAUUUUUUCCUCGAGCAA [A31G C56A G88A], the nonsense suppression is at most 0.026. As to CUCUCGGUAGCCAGGUAGGUUUAAGGCGCAAGACUUUAAUUUAUCACUACGAAAUCUUUAGAUCGGGCGUUCGACUCGCCCCCGGGAGAUUUUUUCCUCGAGCAA [A14G U17A G59U], the nonsense suppression was at most 0.026. Consider CUCUCGGUAGCCAAGUUGGUUUAAGGCGCAAGACUUUAAUUUAUCACUACGAAAUCUUGACAUCGGGCGUUCGACUCGCCCACGAGAGAUUUUUUCCUCGAGCAA [G61C C82A G85A], for which the nonsense suppression is at most 0.026. The result for CUCUCGGUAGCCAAGUUGGUUUUAGGUGCAAGACUUUAAUUUAUCACUACGAAAUCUUGAGAUCGGGCGUUCGACUCGCCCCCGGGAGAUUUUUUCCUCGAGCAA [A23U C27U] reads at most 0.026; that for CUCUCGGUAGCCAAGUUGGUUUAAGGCGCAAGACUUUAAUUUAUCACUACGAAAGCUUGAGAUCGGACGUUCGACUCGCCCCCGGGAGAUUUUUUCCUCGAGCAA [U55G G67A], at most 0.026.

Consider CUCUCGGUAGCCAAGUUGGUUUAAGGCGCAAGACUUUAAUUUAUCACUACGAAAUCUUGAGAUAGGGCGUUCGACUCGCCCCCGGGAGCUUUUUUCCUCGAGCAA [C64A A89C], for which the nonsense suppression is at most 0.026. Turning to CUCUCGGUAGCCAAGUUGGUUUAAGGCGCAAGACUUUAAUUUAUCACUACGAAAUCUUGAGAUCGAGCGUUCGACCCGCCCCCGGGAAAUUUUUUCCUCGAGCAA [G66A U76C G88A], the nonsense suppression was at most 0.026. CUCUCGGUAGCCAAGUUGGUUCAAGGCGCAAGACUUUAAUUUAUCACUACGAAAUCUUGAGAUCGGGCGCUCAACUCGCCCCCGGGAGAUUUUUUCCUCGAGCAA [U22C U70C G73A]: the nonsense suppression was at most 0.026.
